In the supplement of paper PMC4604168 (melanoma cell lines):
This is one part of the list. Repeats are few or missing, and single values can be far off.

Tested on: COLO792
Assay: cell count relative to DMSO control; melanoma cells; higher = more viable cells
Conditions: library dose: low library concentration; 72 h
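Note: cell number obtained by counting DAPI-stained nuclei in high-throughput microscope images with image analysis software, screen run in 1,536-well plates.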

Compound | cell count [%]
O=c1[nH]nc(Sc2ncc([N+](=O)[O-])s2)n1-c1ccc2c(c1)OCCO2 + C[C@]1(c2nc3c(C(N)=O)cccc3[nH]2)CCCN1 [Veliparib] (first compound 0.2 µM, partner dose 1.4 µM) | 86.8
O=C(Nc1cccc(Cl)c1)Nc1ncc(CCNc2ncnc3ccsc23)s1 + CCCCCCCCCCCC1=C(O)C(=O)C=C(O)C1=O [Embelin] (first compound 0.0008 µM, partner dose 1.2 µM) | 92
O=C(Nc1cccc(Cl)c1)Nc1ncc(CCNc2ncnc3ccsc23)s1 + c1cc(-c2cnn3cc(-c4ccc(OCCN5CCCCC5)cc4)cnc23)ccn1 [Dorsomorphin] (first compound 0.0008 µM, partner dose 0.4 µM) | 87
C[C@@H]1CCN(C(=O)CC#N)C[C@@H]1N(C)c1ncnc2[nH]ccc12 + CCCCCCCCCCCC1=C(O)C(=O)C=C(O)C1=O [Embelin] (first compound 1 µM, partner dose 1.2 µM) | 97.3
COc1cc(Nc2ncc(F)c(Nc3ccc4c(n3)NC(=O)C(C)(C)O4)n2)cc(OC)c1OC [Tamatinib] + Oc1nc(-c2ccc(C(F)(F)F)cc2)nc2c1CSCC2 [XAV939] (first compound 0.4 µM, partner dose 2 µM) | 39.6
O=C(O)c1ccc(-c2c[nH]c3ncc(-c4ccccc4)cc23)cc1C1CCCC1 + COc1ccc2c(c1)CCC1C2CCC2(C)C(NCCCCCCN3C(=O)C=CC3=O)CCC12 [U73122] (first compound 0.16 µM, partner dose 0.4 µM) | 81.9
O=c1[nH]nc(Sc2ncc([N+](=O)[O-])s2)n1-c1ccc2c(c1)OCCO2 + Nc1ccn([C@@H]2O[C@H](CO)[C@@H](O)C2(F)F)c(=O)n1 [gemcitabine] (first compound 0.2 µM, partner dose 0.0004 µM) | 86.4
CC1(C)NC(=O)N(c2ccc([N+](=O)[O-])c(C(F)(F)F)c2)C1=O [nilutamide] + CCCCCCCCCCCC1=C(O)C(=O)C=C(O)C1=O [Embelin] (first compound 1 µM, partner dose 1.2 µM) | 108
O=c1[nH]nc(Sc2ncc([N+](=O)[O-])s2)n1-c1ccc2c(c1)OCCO2 + CNC(=O)c1cc(Oc2ccc(NC(=O)Nc3ccc(Cl)c(C(F)(F)F)c3)cc2)ccn1 [sorafenib] (first compound 0.2 µM, partner dose 0.4 µM) | 125
Cn1cncc1[C@@](N)(c1ccc(Cl)cc1)c1ccc2c(c1)c(-c1cccc(Cl)c1)cc(=O)n2C [tipifarnib] + COC(=O)c1sccc1S(=O)(=O)Nc1ccc(Nc2ccccc2)cc1OC [GSK0660] (first compound 0.01 µM, partner dose 1 µM) | 91.9
O=c1[nH]nc(Sc2ncc([N+](=O)[O-])s2)n1-c1ccc2c(c1)OCCO2 + Cc1cn(-c2cc(NC(=O)c3ccc(C)c(Nc4nccc(-c5cccnc5)n4)c3)cc(C(F)(F)F)c2)cn1 [nilotinib] (first compound 0.2 µM, partner dose 0.2 µM) | 99.5
O=c1[nH]nc(Sc2ncc([N+](=O)[O-])s2)n1-c1ccc2c(c1)OCCO2 + CC(C)C[C@H](NC(=O)[C@H](Cc1ccccc1)NC(=O)c1cnccn1)B(O)O [Bortezomib] (first compound 0.2 µM, partner dose 0.001 µM) | 105
O=c1[nH]nc(Sc2ncc([N+](=O)[O-])s2)n1-c1ccc2c(c1)OCCO2 + Cc1nc(Nc2ncc(C(=O)Nc3c(C)cccc3Cl)s2)cc(N2CCN(CCO)CC2)n1 [dasatanib] (first compound 0.2 µM, partner dose 0.004 µM) | 58.1
O=C(O)c1ccc(-c2c[nH]c3ncc(-c4ccccc4)cc23)cc1C1CCCC1 + Oc1nc(-c2ccc(C(F)(F)F)cc2)nc2c1CSCC2 [XAV939] (first compound 0.16 µM, partner dose 2 µM) | 80.9
CC1(C)NC(=O)N(c2ccc([N+](=O)[O-])c(C(F)(F)F)c2)C1=O [nilutamide] + CCN(CC)CCCCNc1ncc2cc(-c3cc(OC)cc(OC)c3)c(NC(=O)NC(C)(C)C)nc2n1 [PD173074] (first compound 1 µM, partner dose 0.1 µM) | 103
Cn1cncc1[C@@](N)(c1ccc(Cl)cc1)c1ccc2c(c1)c(-c1cccc(Cl)c1)cc(=O)n2C [tipifarnib] + c1cc(-c2cnn3cc(-c4ccc(OCCN5CCCCC5)cc4)cnc23)ccn1 [Dorsomorphin] (first compound 0.01 µM, partner dose 0.4 µM) | 90.9
C[C@@H]1CCN(C(=O)CC#N)C[C@@H]1N(C)c1ncnc2[nH]ccc12 + COc1cc(N2CCC(N3CCN(C)CC3)CC2)ccc1Nc1ncc(Cl)c(Nc2ccccc2S(=O)(=O)C(C)C)n1 [NVP-TAE684] (first compound 1 µM, partner dose 0.08 µM) | 90.7
O=C(O)c1ccc(-c2c[nH]c3ncc(-c4ccccc4)cc23)cc1C1CCCC1 + Oc1cc(-c2nc(-c3ccccc3)[nH]c2-c2ccncc2)ccc1Cl [L779450] (first compound 0.16 µM, partner dose 0.2 µM) | 91
COc1cc(Nc2ncc(F)c(Nc3ccc4c(n3)NC(=O)C(C)(C)O4)n2)cc(OC)c1OC [Tamatinib] + COc1ccc2c(c1)CCC1C2CCC2(C)C(NCCCCCCN3C(=O)C=CC3=O)CCC12 [U73122] (first compound 0.4 µM, partner dose 0.4 µM) | 57.1
C[C@@H]1CCN(C(=O)CC#N)C[C@@H]1N(C)c1ncnc2[nH]ccc12 + O=S(=O)(c1ccccc1)N(CC(F)(F)F)c1ccc(C(O)(C(F)(F)F)C(F)(F)F)cc1 [T0901317] (first compound 1 µM, partner dose 1.4 µM) | 81.3
O=c1[nH]nc(Sc2ncc([N+](=O)[O-])s2)n1-c1ccc2c(c1)OCCO2 + COc1ccc(C2=N[C@@H](c3ccc(Cl)cc3)[C@@H](c3ccc(Cl)cc3)N2C(=O)N2CCNC(=O)C2)c(OC(C)C)c1 [Nutlin-3] (first compound 0.2 µM, partner dose 0.1 µM) | 92.3
CC1(C)NC(=O)N(c2ccc([N+](=O)[O-])c(C(F)(F)F)c2)C1=O [nilutamide] + COc1cc(N2CCC(N3CCN(C)CC3)CC2)ccc1Nc1ncc(Cl)c(Nc2ccccc2S(=O)(=O)C(C)C)n1 [NVP-TAE684] (first compound 1 µM, partner dose 0.08 µM) | 90.8
